From PMC5615199, “Structural Basis for EarP-Mediated Arginine Glycosylation of Translation Elongation Factor EF-P” (mBio, 2017)
Where a chain is given by its changes, count along the chain named. Names and notes keep the numbering of the source. No constants are given. Whether binding was seen depends on the method and setting. Some binding calls cover weakened binding; strength is not graded here. For some of these results: Sequences can lack the tags named with a protein.

T1: EF-PPpu, translation elongation factor EF-P from Pseudomonas putida, T18 hybrid (pUT18C-efpPpu) (Pseudomonas putida) (UniProt Q88LS0)
T1 sequence: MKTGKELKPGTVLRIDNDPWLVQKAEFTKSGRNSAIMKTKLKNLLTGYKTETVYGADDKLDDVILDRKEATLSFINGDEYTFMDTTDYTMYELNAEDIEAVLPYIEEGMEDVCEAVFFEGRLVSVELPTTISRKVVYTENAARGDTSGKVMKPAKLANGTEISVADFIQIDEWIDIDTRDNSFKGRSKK

B1: D13A^EarP, T25 hybrid (pKT25-D13A) (enzyme, UniProt Q88LS1 2-377)
chain: KATWDIFCSVVANYGDIGVTWRLARQLVAEHGLAVRLWVDDLNAFTPMCPGADATAAQQWQHGVDVRHWPAAWLPVAPADVVIGAFACQLPAAYVEAMRARPQPPLWLNLEYLSAEDWVEGCHGLPSPQPNGLRKVFFFPGFTDKTGGLLREGSLLARRDGFQQSAEARRAFLQGLGVDLVPGALLISLFAYENPQLGNWLDALATADQPCHLLVPQGRVVAGLSQWLGEGPLHVGDVRTRGALTVQVLPFVSQDDFDRLLWSCDFNAVRGEDSFVRAQWAGQPMLWHIYVQDENAHWEKLEAFLAHYRCGLSDDADAALLGLWRAWNMDFDMGQAWRAARQHWPELQQHARLWGARQAAQPDLATALVHFYRNSL
B2: D17A^EarP, T25 hybrid (pKT25-D17A) (enzyme, UniProt Q88LS1 2-377)
chain: B1 chain with A12D, D16A
B3: E273A^EarP, T25 hybrid (pKT25-E273A) (enzyme, UniProt Q88LS1 2-377)
chain: B1 chain with A12D, E272A
B4: EarPPpu, EarP from Pseudomonas putida KT2440, purified His6-tagged protein (enzyme, UniProt Q88LS1 2-377)
chain: B1 chain with A12D
B5: R271A^EarP, T25 hybrid (pKT25-R271A) (enzyme, UniProt Q88LS1 2-377)
chain: B1 chain with A12D, R270A
B6: Y291A^EarP, T25 hybrid (pKT25-Y291A) (enzyme, UniProt Q88LS1 2-377)
chain: B1 chain with A12D, Y290A
B7: F191A^EarP, T25 hybrid (pKT25-F191A) (enzyme, UniProt Q88LS1 2-377)
chain: B1 chain with A12D, F190A
B8: Y193A^EarP, T25 hybrid (pKT25-Y193A) (enzyme, UniProt Q88LS1 2-377)
chain: B1 chain with A12D, Y192A
B9: F252A^EarP, T25 hybrid (pKT25-F252A) (enzyme, UniProt Q88LS1 2-377)
chain: B1 chain with A12D, F251A
B10: Q255A^EarP, T25 hybrid (pKT25-Q255A) (enzyme, UniProt Q88LS1 2-377)
chain: B1 chain with A12D, Q254A
B11: F258A^EarP, T25 hybrid (pKT25-F258A) (enzyme, UniProt Q88LS1 2-377)
chain: B1 chain with A12D, F257A
B12: D274A^EarP, T25 hybrid (pKT25-D274A) (enzyme, UniProt Q88LS1 2-377)
chain: B1 chain with A12D, D273A
B13: S275A^EarP, T25 hybrid (pKT25-S275A) (enzyme, UniProt Q88LS1 2-377)
chain: B1 chain with A12D, S274A

Biological target: T1, EF-PPpu, translation elongation factor EF-P from Pseudomonas putida, T18 hybrid (pUT18C-efpPpu) (Pseudomonas putida)
Assay: two-hybrid; bacterial adenylate cyclase two-hybrid (T18/T25) in E. coli BTH101, colony colour on LB X-Gal-IPTG screening plates, 48 h at 30°C

| Binder | binding |
| --- | --- |
| B1 | binds |
| B2 | binds |
| B3 | binds |

Biological target: EarPPpu, EarP from Pseudomonas putida KT2440, purified His6-tagged protein (Pseudomonas putida KT2440) (UniProt Q88LS1)
Assay: SAXS; EarP at 1.0, 2.0, 4.0 and 8.0 mg/ml, free and with TDP-Rha in 7:1 excess, 20°C; scattering back-calculated from the crystal structure fitted to the data; both purified

| Binder | binding |
| --- | --- |
| B4 | no binding (tested: 1.0 to 8.0 mg/ml) |

Biological target: T1, EF-PPpu, translation elongation factor EF-P from Pseudomonas putida, T18 hybrid (pUT18C-efpPpu) (Pseudomonas putida)
Assay: two-hybrid; bacterial adenylate cyclase two-hybrid (T18/T25) in E. coli BTH101, beta-galactosidase activity in Miller units from liquid LB cultures with 0.5 mM IPTG, 30°C, 42 h; T25 and T18 alone <60 MU define the threshold

| Binder | binding |
| --- | --- |
| B5 | binds |
| B6 | binds |
| B7 | no binding (tested: <60 MU (threshold of the assay)) |
| B8 | no binding (tested: <60 MU (threshold of the assay)) |
| B9 | no binding (tested: <60 MU (threshold of the assay)) |
| B10 | no binding (tested: <60 MU (threshold of the assay)) |
| B11 | no binding (tested: <60 MU (threshold of the assay)) |
| B12 | no binding (tested: <60 MU (threshold of the assay)) |
| B13 | no binding (tested: <60 MU (threshold of the assay)) |
